# T1: purified recombinant human Napi2b antigen (Napi2b-extracellular-loop2 Fc-fusion-6-His) (Homo sapiens, UniProt O95436)
# T1 construct: Napi2b antigen consisting of Napi2b-extracellular-loop2 expressed as Fc-fusion-6-His-tagged protein in Expi-HEK293 cells; Fc-fusion; 6-His; made in house; host or cells: Expi-HEK293 cells
# T1 sequence (O95436 234-362 limits assumed): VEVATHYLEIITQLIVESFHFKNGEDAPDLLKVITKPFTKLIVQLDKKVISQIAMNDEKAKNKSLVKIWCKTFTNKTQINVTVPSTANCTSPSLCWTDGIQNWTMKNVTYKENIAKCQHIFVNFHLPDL
# B1: AV25: humanized anti-NaPi2b IgG1 antibody, light chain SEQ ID NO: 6, heavy chain SEQ ID NO: 7, Fc-silenced (LALA) (antibody)
# heavy: EVQLVQSGAEVVKPGASVKMSCKASGYTFTGYIIHWVKQAPGQGLEWIGAIYPGSGATSYKQKFRGRATLTADTSTSTVYMELSSLRSEDSAVYYCARGETARATFAYWGQGTLVTVSS[human IgG1 constant region with changes skipped]
# light: DIQMTQSPSSLSASVGDRVTITCSASQDIGNFLNWYQQKPGKTVKVLIYYASSLYSGVPSRFSGSGSGTDYTLTISSLQPEDFATYYCQQYSKLPLTFGQGTKLELKRTVAAPSVFIFPPSDEQLKSGTASVVCLLNNFYPREAKVQWKVDNALQSGNSQESVTEQDSKDSTYSLSSTLTLSKADYEKHKVYACEVTHQGLSSPVTKSFNRGEC
# modifications: Heavy chain without a signal seqeunce; Light chain without a signal seqeunce
# B2: AV25-P5(PEG24)-VC-PAB-Exatecan DAR 8: AV25 antibody conjugated to P5(PEG24)-VC-PAB-Exatecan, DAR8 (conjugate)
# heavy: EVQLVQSGAEVVKPGASVKMSCKASGYTFTGYIIHWVKQAPGQGLEWIGAIYPGSGATSYKQKFRGRATLTADTSTSTVYMELSSLRSEDSAVYYCARGETARATFAYWGQGTLVTVSS[human IgG1 constant region with changes skipped]
# light: B1 light
# Key:
# [1] = target: T1, purified recombinant human Napi2b antigen (Napi2b-extracellular-loop2 Fc-fusion-6-His); assay: Binding to immobilized human NaPi2B evaluated by ELISA; conditions: one-site specific binding model, n=2
# Procedure: Binding of increasing concentrations of parental mAb and AV mAb clones to a purified recombinant immobilized human Napi2b antigen was tested in an ELISA setting.
# To determine binding of parental and AV mAb clones to Napi2b antigen, flat-bottom surface-treated 96-well-plates (Nunclon, Thermo Fisher Scientific) were coated with 1 μg/mL purified recombinant human Napi2b antigen consisting of Napi2b-extracellular-loop2 expressed as Fc-fusion-6-His-tagged protein in Expi-HEK293 cells. After blocking with 2% bovine serum albumin (Carl Roth) in 1× PBS-Tween 20 (0.05%), increasing antibody concentrations (0.00015, 0.00046, 0.00137, 0.00412, 0.01235, 0.03704, 0.11111, 0.33333, 1.00000, 3.00000, 9.00000 μg/ml) were allowed to bind for 2 hr at room temperature. Bound antibodies were detected by incubation with HRP-conjugated goat anti-human kappa light chain secondary antibody (dilution 1:10000 in blocking solution) for 1 hr at RT. […] Absorbance at 450 nm was measured within 10 min of addition of acid using a microplate reader Infinite M1000 Pro (Tecan). Apparent dissociation constants (KD) were derived by non-linear regression using a one-site specific binding model using Prism 9 software. KD in μg/ml, 0.02209 parental mAb, 0.01581 AV15, 0.01494 AV18, 0,01248 AV21, 0,01060 AV25, 0.01238 AV29.
# OVCAR-3 cells = assay: In vivo efficacy in cell line derived xenograft model (CDX); parameters: species or system CB17-Scid mice
# Procedure: In brief, 1×10^7 OVCAR-3 cells (100 μL+100 μL Matrigel) were subcutaneously injected to CB17-Scid mice.
# OVCAR-3 and HCC-78 cells = assay: DNA damage / apoptosis markers (cleaved PARP, active caspase 3, pH2AX) by flow cytometry, dose response; type: cell-based; conditions: 0.05-12 μg/ml, 72 h
# Procedure: Topoisomerase-I inhibition by delivery of exatecan via the AV25-P5(PEG24)-VC-PAB-Exatecan DAR8 ADC induces DNA damage as detected by the accumulation of cleaved PARP, active caspase 3 and phosphorylated histon 2AX (pH2AX). OVCAR-3 and HCC-78 cells (both Napi2b^high) were treated with increasing concentrations (0.05-12 μg/ml) of AV25-P5(PEG24)-VC-PAB-Exatecan or an Isotype control (isotype-P5(PEG24)-VC-PAB-Exatecan for 72 h. Cells were stained with live/dead stain (Thermo Fisher Scientific) and after fixation and permeabilization using the Fixation/Permeabilization kit (BD Biosciences) for the DNA damage markers active caspase 3, cleaved PARP and pH2AX (Ser-139) (all BD Biosciences) and analyzed by flow cytometry. Graphs show means of n=2±SEM.
# FIGS. 42A and 42B show the dose-dependent induction of DNA-damage and apoptosis markes in response to treatment with increasing concentrations of AV25-P5(PEG24)-VC-PAB-Exatecan DAR8. A corresponding non-targeting isotype control conjugate was included as negative control. HCC-78 cells (A, NaPi2b^high) and OVCAR-3 cells (B, NaPi2b^high) were treated with increasing concentrations (0.05-12 μg/ml) of AV25-P5(PEG24)-VC-PAB-Exatecan DAR8 or the Isotype ADC (Isotype-P5(PEG24)-VC-PAB-Exatecan DAR8) for 72 h, Cells were stained for cleaved PARP (left), Caspase 3 (middle) and pH2AX (right) and analyzed via flow cytometry. Graphs show means of n=2±SEM.
# [2] = 5, 3 and 1 mg/kg, total and intact ADC
# Procedure: All animal experiments were conducted in accordance with German animal welfare law and approved by local authorities. […] Treatment was initiated when tumours reached a mean tumour volume of 0.1-0.15 cm^3. […] Tumour volumes, body weights and general health conditions were recorded throughout the whole study.
# [3] = 10 and 20 mg/kg i.v.
Molecule,Apparent dissociation constants (KD) [1],"Tumor relapse (OVCAR-3 cells; single dose as low as 1 mg/kg, until end of observation period)","Tumor response (OVCAR-3 cells; single i.v. injection, all dose levels 1, 3 and 5 mg/kg)","Accumulation of DNA damage (cleaved PARP-, active caspase 3- and pH2AX-positive cells) (OVCAR-3 and HCC-78 cells)",PK exposure profiles and stability of the ADC [2],PK exposure profile / in vivo clearance [3]
B1,"0,01060 μg/ml",–,–,–,–,–
B2,–,does not show any tumor relapse,Complete tumor remission,induces a concentration-dependent accumulation of DNA damage,dose proportional exposure profiles and high stability,"good exposure profile, without enhanced in vivo clearance"

# Reference: US20240182596A1, “ANTI-NAPI2B ANTIBODIES AND ANTIBODY-DRUG-CONJUGATES BASED THEREON, THERAPEUTIC METHODS AND USES THEREOF” (Tubulis GmbH, priority 2022, published 2024)
